Measurements: patent publication US20260109773A1 (HARPOON THERAPEUTICS, published 2026)

Molecular target: T1, 02B05 TriTAC
T1 construct: TriTAC trispecific; His6 in entry; also called exemplary BCMA targeting trispecific protein (02B05)
Assay: Octet; 50 nM mouse serum albumin on streptavidin tips; n=1
Method: The affinities were measured using an Octet instrument. For these measurements, streptavidin tips were first loaded with 2.5 nM human BCMA-Fc, 2.5 nM cynomolgous BCMA-Fc, 2.5 nM human CD3ε-Fc, 2.5 nM cynomolgus CD3ε-Fc, 50 nM human serum albumin (HSA), 50 nM cynomolgus serum albumin, or 50 nM mouse serum albumin. […] Average calculated KD values from these studies are provided in Table 4 (n indicates the number of independent measurements, n/d indicates no binding detected under the conditions tested).

T1 sequence (chain, as listed by the source): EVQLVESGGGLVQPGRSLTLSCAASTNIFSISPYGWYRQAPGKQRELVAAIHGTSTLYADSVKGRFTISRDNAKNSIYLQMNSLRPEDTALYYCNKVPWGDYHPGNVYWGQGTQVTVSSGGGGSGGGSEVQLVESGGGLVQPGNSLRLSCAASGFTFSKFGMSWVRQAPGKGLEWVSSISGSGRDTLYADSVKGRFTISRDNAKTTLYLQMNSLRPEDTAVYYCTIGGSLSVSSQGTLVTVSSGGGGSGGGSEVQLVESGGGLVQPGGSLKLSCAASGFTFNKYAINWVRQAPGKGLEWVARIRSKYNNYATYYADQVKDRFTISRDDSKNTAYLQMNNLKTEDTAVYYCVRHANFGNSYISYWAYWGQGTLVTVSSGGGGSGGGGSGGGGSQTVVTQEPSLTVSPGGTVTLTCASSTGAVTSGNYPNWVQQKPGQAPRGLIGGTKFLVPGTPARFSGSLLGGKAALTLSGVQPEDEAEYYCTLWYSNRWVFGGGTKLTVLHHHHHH

B1: mouse serum albumin (other)
chain: not shown
notes: loaded on streptavidin tips
Binder B1 has a Kd of 76 nM.
